# Screen size: about 350,000 compounds; about 31,000 (8.9%) were called active. Inconclusive means that the source gave no clear call. Such entries were picked first, then a sample of the others. Calls follow the shape of the dose curve; as a rule, active = well fitted inhibition curve with a large enough effect; inconclusive = small, poorly fitted or top-dose-only effect; inactive = no such curve, though single readings can be large or run the other way. Where the call is inconclusive, the potency comes from a doubtful curve fit.
# Biological target: Histone-lysine N-methyltransferase EHMT2 (Homo sapiens) (UniProt Q96KQ7)
# Test: qHTS Assay for Inhibitors of Histone Lysine Methyltransferase G9a; also: nearly all actives have a fitted effect of over 75% in size
# Conditions: G9a H3K9 monomethylation, AlphaScreen, 2 h; activity, negative = inhibition: at 59 µM (top of the series) unless noted
# Text: Methylated lysines, on the N-terminal tails of histone proteins serve as epigenetic markers to recruit factors that can then modify local chromatin structure to lead to functional consequences. G9a and other members of the SUV39 family of the SET domain-containing superfamily of histone lysine methyltransferases (HMT) have been identified to specifically methylate Lys9 of histone H3 (H3K9). G9a catalyzes the mono- and di-methylation of H3K9 in mammalian euchromatic regions, where the resulting H3K9me2 is indicative of transcriptional repression. […] The inhibition of G9a will result in transcriptional activation and work synergistically with DNA methyltransferase and histone deacetylase inhibitors, to kill cancer cells. This qHTS assay for identification of G9a inhibitors is a chemiluminescence based AlphaScreen (PerkinElmer). Methylation of biotinylated-histone peptide is measured through specific antibody-based detection, in conjunction with streptavidin-coated donor and anti-IgG antibody-coated acceptor beads. The method is particularly well suited for detection of inhibitors acting by the desired histone peptide competitive mechanism and is applicable to testing other HMTs. Although AlphaScreen has significant advantages with its utility in a variety of epigenetic target assays, the primary screening data provided in this deposition should be used with caution due to the prevalence of screening artifacts. An AlphaScreen counterscreen is highly recommended to be run against any putative actives to eliminate non specific artifacts. Alternatively, one can use other AlphaScreen assays in PubChem to filter out promiscuous hits. Quinn et al. A chemiluminescence-based method for identification of histone lysine methyltransferase inhibitors. Mol Biosyst 6(5): 782-8. 2010. PMID: 20567762 [2] Baell,Holloway. New substructure filters for removal of pan assay interference compounds (PAINS) from screening libraries and for their exclusion in bioassays. J Med Chem. 53(7):2719-40. 2010. PMID: 20131845 NIH Molecular Libraries Probe Production Network [MLPCN] NIH Chemical Genomics Center [NCGC] Structural Genomics Consortium (SGC) NIH Grant: 5U54 MH084681-02
# To each well of a 1,536w plate, 2ul of HMT enzyme (final 20nM) were added, using a nanoliter dispenser. The G9a- and GLP-inhibitor BIX-01294 (CID: 25150857) are used as an intraplate control, with a 16-point titration in duplicate. A Kalypsys pin-tool transferred 23nl of library compound solution in DMSO to each well. Following a 15 min incubation of enzyme with compounds at room temperature, 1ul mixture of b-H3K9 peptide substrate (final 500nM) and SAM cofactor (final 20uM) were added. Reactions were allowed to proceed at room temperature for 2 hours. Methylated b-H3K9 peptide product was detected with 0.5 ug/mL rabbit polyclonal anti-monomethyl histone H3K9 antibody (Abcam Inc., Cambridge, MA) and 20 ug/mL each streptavidin-coated donor and anti-rabbit IgG acceptor AlphaScreen beads. Antibody and beads were added in a 1ul dispense, for a final volume of 4ul, and plates were incubated, protected from the light, for 10 min at room temperature. Microplates were then read on an EnVision multilabel plate reader using the 1,536 plate HTS AlphaScreen aperture (excitation time 80 ms, measurement time 240 ms).
# % is scaled to controls: 0 for no effect and ±100 for the full control effect; potency is read from the fitted curve at half-maximal effect; tags tell the direction and shape of the fitted curve.
# Sequence of UniProt Q96KQ7 (Q96KQ7 whole entry, looked up): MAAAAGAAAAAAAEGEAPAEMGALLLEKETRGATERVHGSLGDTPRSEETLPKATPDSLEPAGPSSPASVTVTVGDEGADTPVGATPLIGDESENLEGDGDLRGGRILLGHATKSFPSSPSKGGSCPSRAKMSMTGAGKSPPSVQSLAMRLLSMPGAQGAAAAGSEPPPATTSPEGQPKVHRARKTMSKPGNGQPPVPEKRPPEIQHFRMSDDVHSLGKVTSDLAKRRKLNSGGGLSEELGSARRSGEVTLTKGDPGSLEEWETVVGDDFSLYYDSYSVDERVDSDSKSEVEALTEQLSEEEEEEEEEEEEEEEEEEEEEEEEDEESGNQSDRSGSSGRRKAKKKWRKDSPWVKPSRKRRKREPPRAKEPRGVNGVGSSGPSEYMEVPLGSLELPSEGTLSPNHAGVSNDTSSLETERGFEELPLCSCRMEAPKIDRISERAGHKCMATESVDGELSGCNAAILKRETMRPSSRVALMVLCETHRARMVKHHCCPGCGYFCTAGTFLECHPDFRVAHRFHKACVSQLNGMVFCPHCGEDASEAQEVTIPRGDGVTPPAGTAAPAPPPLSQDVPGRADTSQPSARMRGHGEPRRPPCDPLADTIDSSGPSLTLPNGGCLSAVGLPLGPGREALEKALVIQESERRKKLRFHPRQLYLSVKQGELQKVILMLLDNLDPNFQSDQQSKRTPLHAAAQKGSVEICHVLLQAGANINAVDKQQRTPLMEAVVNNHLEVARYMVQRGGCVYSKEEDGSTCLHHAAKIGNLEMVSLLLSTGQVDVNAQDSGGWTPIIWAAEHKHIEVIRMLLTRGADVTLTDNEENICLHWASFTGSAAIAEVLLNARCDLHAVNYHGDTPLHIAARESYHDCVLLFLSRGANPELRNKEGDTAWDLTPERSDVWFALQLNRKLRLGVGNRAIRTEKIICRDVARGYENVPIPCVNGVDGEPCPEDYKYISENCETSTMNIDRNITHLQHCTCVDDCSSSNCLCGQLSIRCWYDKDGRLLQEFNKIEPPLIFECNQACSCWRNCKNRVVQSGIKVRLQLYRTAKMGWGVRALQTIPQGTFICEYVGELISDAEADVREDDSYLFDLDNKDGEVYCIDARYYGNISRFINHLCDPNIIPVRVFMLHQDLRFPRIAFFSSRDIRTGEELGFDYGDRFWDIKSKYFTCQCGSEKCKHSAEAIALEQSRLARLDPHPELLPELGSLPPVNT
Compound,"activity, negative = inhibition",Potency
CCCCCCCCCCCCCCCC(=O)OCC(NC(=O)C(Cl)Cl)C(O)c1ccc([N+](=O)[O-])cc1 (stereo unspecified),inactive: 23.7%,
CC1CN(S(=O)(=O)c2cccc(C(=O)N(C)C3CCN(C)CC3)c2)CC(C)O1 (stereo unspecified),,"inconclusive: 7.08 µM [inhibitor, single point]"
CCOc1ccc(/C=C2\SC(=S)NC2=O)cc1OC,,active: 12.6 µM
Cc1c(C(=O)NN2CCCCC2)nn(-c2ccc(Cl)cc2Cl)c1-c1ccc(Cl)cc1,,"inconclusive: 15.8 µM [inhibitor, partial curve]"
Cn1cccc1C(=O)N1CCC2(CCCN(c3ccccc3)C2)CC1,inactive: 1.11% [at 12.7 µM],
COc1ccc2c(c1)c(C(O)CN1CCC3(CC1)OCCO3)c(C)n2C (stereo unspecified),,"inconclusive: 79.4 µM [inhibitor, single point]"
CC(CCc1ccccc1)N1CCN(C)CC1 (stereo unspecified),,"inconclusive: 79.4 µM [inhibitor, single point]"
COc1ccccc1OCCC(=O)OCC(=O)c1[nH]c(C)c(C(C)=O)c1C,,"inconclusive: 79.4 µM [inhibitor, partial curve, poor fit]"
Nc1c(Cl)cc(C2=NCCn3c2c2ccc([N+](=O)[O-])cc2[n+]3[O-])cc1Cl,inconclusive: -73.1% [inhibitor] [at 2.33 µM],
Cc1ccc(N2CCN(c3cc(C)nc4c(-c5ccc(Cl)cc5)c(C)nn34)CC2C)cc1 (stereo unspecified),inactive: 0.507%,
CC(=O)C1=C(O)C(=O)N(CCc2c[nH]c3ccccc23)C1c1ccc(C)cc1 (stereo unspecified),,active: 44.7 µM
Cn1c(=O)c2c(nc(SCC(=O)Nc3ccc(F)cc3)n2Cc2ccc(Cl)cc2)n(C)c1=O,inactive: 10.3%,
CCCN1CCc2c(sc(NC(=O)CCS(=O)(=O)c3ccccc3)c2C(N)=O)C1,,"inconclusive: 79.4 µM [inhibitor, single point]"
CSc1nnc(NC(=O)c2nc(S(=O)(=O)Cc3ccc(C)cc3)ncc2Cl)s1,,"inconclusive: 1.58 µM [inhibitor, full curve, poor fit]"
CC(C)=CCC/C(C)=C/Cc1c(O)ccc(C(=O)/C=C/c2ccc(O)cc2)c1O,,"inconclusive: 50.1 µM [inhibitor, partial curve]"
CCOC(=O)N1CCN(c2c(Nc3ccc4c(c3)OCCO4)c(=O)c2=O)CC1,,"inconclusive: 50.1 µM [inhibitor, partial curve]"
O=C(O)C1CCC(Cn2c(SCc3cc(=O)n4ccccc4n3)nc3ccsc3c2=O)CC1 (stereo unspecified),,"inconclusive: 1.12 µM [inhibitor, full curve, poor fit]"
COc1ccc(CNc2ccnc(-c3ccccc3OC)n2)c(OC)c1,inactive: -1.86% [at 0.501 µM],
O=C(O)c1cccc(NS(=O)(=O)c2ccc(Cl)c(C(=O)O)c2)c1,,"inconclusive: 89.1 µM [inhibitor, single point]"
COc1ccc(OC(C)C(=O)N(C)Cc2nc(-c3ccc(C)cc3)no2)cc1 (stereo unspecified),,"inconclusive: 25.1 µM [inhibitor, single point]"
CCOc1ncccc1C(=O)OCC(=O)c1c[nH]c2ccccc12,,"inconclusive: 7.08 µM [inhibitor, single point]"
Cc1ccc(C)c(N2CCN(C(=O)c3csc4ccccc34)CC2)c1,,"inconclusive: 11.2 µM [inhibitor, partial curve, poor fit]"

Compound,"activity, negative = inhibition",Potency
O=C(Nc1nc(-c2ccccn2)cs1)c1cccc(S(=O)(=O)N2CCOCC2)c1,,"inconclusive: 7.08 µM [inhibitor, single point]"
CC(=O)OC[C@H]1O[C@H](CCO/N=C(\C)CCN2CCCc3nc(C)c(C)cc32)C=C[C@@H]1OC(C)=O,,"inconclusive: 89.1 µM [inhibitor, single point]"
CCC1=NN2C(=N)/C(=C\c3ccc(SCc4ccco4)o3)C(=O)N=C2S1,,active: 7.08 µM
Cc1ccc(-c2csc3ncnc(SCC(N)=O)c23)cc1,inactive: -33.6% [at 102 µM],
COc1ccc(NC(=O)C/C(C)=N/NC(=O)c2cnccn2)cc1,,active: 7.08 µM
CCOc1ccc(/C(O)=C2\C(=O)C(=O)N(c3cc(C)on3)C2c2ccccc2OC)cc1 (stereo unspecified),inconclusive: -59.7% [inhibitor] [at 12.7 µM],
N#CCCNc1c(Cl)cc(Cl)cc1C(=O)O,,"inconclusive: 89.1 µM [inhibitor, single point]"
COC(=O)c1ccc(Cl)c(S(=O)(=O)N2CCCC2)c1,,"inconclusive: 89.1 µM [inhibitor, single point]"
Cc1cn2c(=O)c(S(=O)(=O)NC(C)c3ccccc3)c(C)nc2s1 (stereo unspecified),inactive: 3.54%,
CCN1CCN(c2ccc(S(=O)(=O)N3CCCCC3)cc2NC(=O)COc2ccc(F)cc2Cl)CC1,,"inconclusive: 11.2 µM [inhibitor, partial curve, poor fit]"
Cc1ccc(NC(=O)Cn2ncc3c4ccccc4n(Cc4ccccc4)c3c2=O)cc1Cl,inactive: 7.39%,
CC1CN(C(=O)COC(=O)c2ccc(NC(=O)CC#N)cc2)CC(C)O1 (stereo unspecified),,"inconclusive: 28.2 µM [inhibitor, partial curve, poor fit]"
Cc1ccc(C)c2sc(N3CCN(C(=O)c4ccco4)CC3)nc12,,"inconclusive: 15.8 µM [inhibitor, partial curve]"
Cc1ccc(/C=C/C(=O)Nc2ccc(N(C)C)cc2)o1,,active: 3.98 µM
CCOP(C)(=O)C1(C(=O)OCc2ccccc2)CC1 (stereo unspecified),inactive: 21.7%,
N=c1c(S(=O)(=O)c2ccc(Cl)cc2)cc2c(=O)n3ccccc3nc2n1Cc1ccco1,,"inconclusive: 12.6 µM [inhibitor, partial curve, poor fit]"
Nc1ccc(C2CCCc3nonc32)c2nonc12 (stereo unspecified),,"inconclusive: 79.4 µM [inhibitor, single point]"
COCCOc1cc(N2C(=O)CSCC2=O)c(Cl)cc1Cl,,"inconclusive: 79.4 µM [inhibitor, single point]"
NNC(=O)c1sc2cc(C(F)(F)F)cnc2c1-c1cccnc1,,"inconclusive: 39.8 µM [inhibitor, partial curve, poor fit]"
COc1ccc(N2CCN(C(=O)c3c(C)oc4nc(C)nc(N5CCCC5)c34)CC2)cc1,,"inconclusive: 8.91 µM [inhibitor, partial curve, poor fit]"
Cc1cc2nc(-c3cccc(NC(=O)COc4ccc(C(C)C)cc4)c3)oc2cc1C,inactive: -1.31%,
CC(=O)NC(Cc1cccc(F)c1)C(=O)NC1CCN(C(=O)Nc2ccc(C)cc2)CC1 (stereo unspecified),inactive: 12.6% [at 102 µM],

Compound,"activity, negative = inhibition",Potency
CCN(CC(=O)Nc1c(C(=O)OC)[nH]c2ccccc12)c1ccc2c(c1)OCO2,inconclusive: -74.8% [inhibitor],
CCOc1ccc(S(=O)(=O)N2CCCCC2)cc1NC(=O)CN1C(=O)NC(C)(c2ccc(C)cc2)C1=O (stereo unspecified),,"inconclusive: 50.1 µM [inhibitor, partial curve]"
Cc1ccc(NC(=O)CNc2ccccc2N2CCCC2=O)cc1S(=O)(=O)N1CCOCC1,,active: 44.7 µM
CCSc1nc(N)c2c(C)c(C)sc2n1,inactive: -7.09%,
O=C(c1ccc(F)cc1)N1CCC2(CC1)NCCc1[nH]cnc12,,"inconclusive: 25.1 µM [inhibitor, full curve]"
CCN(CCn1cccn1)C(=O)CC1C(=O)NCCN1Cc1cc(OC)cc(OC)c1 (stereo unspecified),,"inconclusive: 79.4 µM [inhibitor, single point]"
COc1ccc(N/N=C(\C#N)C(=O)NCCc2ccc(OC)c(OC)c2)cc1,,active: 22.4 µM
COC(=O)c1[nH]c2cc(OC)ccc2c1NC(=O)CCN1CCCC(C)(C)C1,,active: 56.2 µM
Cc1ccc(N(Cc2ccccc2)C(=O)c2cc(S(=O)(=O)N3CCOCC3)ccc2Cl)cc1,,"inconclusive: 79.4 µM [inhibitor, partial curve, poor fit]"
COc1ccc(NC(=O)CCN2C(=O)/C(=C/c3ccc4c(c3)OCO4)SC2=S)cc1,inactive: 7.02% [at 12.7 µM],
O=C(c1cnccn1)N1CCC2(CCN(Cc3ccccc3)CC2)CC1,inactive: -0.0851% [at 12.7 µM],
Cc1ccc(C(=O)NNC(=O)CSc2n[nH]c(-c3cccnc3)n2)cc1,,"inconclusive: 7.94 µM [inhibitor, partial curve, poor fit]"
CCN(c1ccccc1C(=O)O)S(=O)(=O)c1ccc2[nH]c(=O)[nH]c2c1,,"inconclusive: 79.4 µM [inhibitor, single point]"
COc1cc(CNc2ccc3[nH]c(=O)[nH]c3c2)ccc1OCc1ccc(C)cc1,,"inconclusive: 79.4 µM [inhibitor, single point]"
CC(=O)N1CCN(S(=O)(=O)c2cccc(C(=O)N(C)Cc3ccc(C)o3)c2)CC1,,"inconclusive: 89.1 µM [inhibitor, partial curve, poor fit]"
CCCNC(=O)c1c(NC(=O)c2ccccc2F)sc2c1CCCCC2,inactive: 6.81%,
Cc1ccc(NC(=O)N2CCC(CN3CCCCCC3)CC2)c(Cl)c1,,"inconclusive: 31.6 µM [inhibitor, partial curve, poor fit]"
Cc1nc(-c2ccc(S(=O)(=O)Nc3ccc(OC(F)(F)F)cc3)cc2)co1,inactive: -1.59%,
CCOC(=O)c1c(CCl)nc2ccccc2c1-c1ccccc1,inconclusive: -93.5% [inhibitor],
O=C(CCc1nnc(CCCCc2ccccc2)o1)N1CCC(N2CCCC2)CC1,,"inconclusive: 17.8 µM [inhibitor, partial curve]"
CCn1cc(S(=O)(=O)CC(=O)Nc2cc(C)ccc2C)c2ccccc21,,"inconclusive: 89.1 µM [inhibitor, single point]"
CCOC(=O)/C(=C\c1ccc(OC(F)F)cc1)C1=Nn2c(nnc2-c2ccc(Cl)cc2)SC1,,"inconclusive: 28.2 µM [inhibitor, single point]"

# — PubChem BioAssay AID504332 (National Center for Advancing Translational Sciences (NCATS), 2011)
